From doi:10.1101/2025.01.09.632086, “The N-terminal order-disorder transition is a critical determinant for a metamorphosis of IscU” (bioRxiv, 2025)

T1: HscA (E. coli, UniProt P0A6Z1 1-616)
T1 construct: HscA, Hsp70-like protein of E. coli Fe-S cluster biogenesis; source: E. coli BL21[DE3], purified (HisTrap, Ulp1 cleavage, reverse HisTrap, Superdex 75); not shown: His6, N-terminal, cleaved; SUMO, N-terminal, cleaved
T1 sequence (looked up): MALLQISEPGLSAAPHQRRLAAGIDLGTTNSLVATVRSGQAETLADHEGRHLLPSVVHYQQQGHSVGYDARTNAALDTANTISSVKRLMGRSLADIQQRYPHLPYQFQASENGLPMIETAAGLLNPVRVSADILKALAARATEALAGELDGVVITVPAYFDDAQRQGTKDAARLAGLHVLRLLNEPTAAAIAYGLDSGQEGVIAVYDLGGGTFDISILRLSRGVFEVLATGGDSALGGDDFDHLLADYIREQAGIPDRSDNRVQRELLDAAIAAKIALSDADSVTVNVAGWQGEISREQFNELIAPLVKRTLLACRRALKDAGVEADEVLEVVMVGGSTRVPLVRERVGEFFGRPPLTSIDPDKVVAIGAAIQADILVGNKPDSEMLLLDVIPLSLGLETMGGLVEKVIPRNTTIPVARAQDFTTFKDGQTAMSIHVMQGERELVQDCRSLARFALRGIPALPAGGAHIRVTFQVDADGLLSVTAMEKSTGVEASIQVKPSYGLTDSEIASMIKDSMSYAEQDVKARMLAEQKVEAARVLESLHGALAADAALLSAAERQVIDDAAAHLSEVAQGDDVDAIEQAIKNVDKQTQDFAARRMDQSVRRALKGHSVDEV

B1: IscU I8K (natural protein, E. coli)
chain: MAYSEKVKDHYENPRNVGSFDNNDENVGSGMVGAPACGDVMKLQIKVNDEGIIEDARFKTYGCGSAIASSSLVTEWVKGKSLDEAQAIKNTDIAEELELPPVKIHCSILAEDAIKAAIADYKSKREAK
notes: IscU of E. coli (UniProt P0ACD4) with the single substitution I8K, made by site-directed mutagenesis of the pTrc99A-based IscU WT plasmid; source: E. coli BL21[DE3], purified (HiTrap Q HP, Superdex 75)
B2: IscU Y11A (natural protein, E. coli)
chain: B1 chain with K8I, Y11A
notes: IscU of E. coli (UniProt P0ACD4) with the single substitution Y11A, made by site-directed mutagenesis of the pTrc99A-based IscU WT plasmid; source: E. coli Rosetta[DE3], purified (HiTrap Q HP, Superdex 75)
B3: IscU R15A (natural protein, E. coli)
chain: B1 chain with K8I, R15A
notes: IscU of E. coli (UniProt P0ACD4) with the single substitution R15A, made by site-directed mutagenesis of the pTrc99A-based IscU WT plasmid; source: E. coli BL21[DE3], purified (HiTrap Q HP, Superdex 75)

These binders were tested against T1, HscA (assay: ITC; 1.5 mM IscU in the syringe, 25 injections into 0.15 mM HscA in the cell; 25 °C; 20 mM Tris-HCl, 150 mM NaCl, 0.5 mM EDTA, 5 mM TCEP, pH 8.0). Details: both partners purified.
B1: binds. B2: binds. B3: binds.

Where a chain is given by its changes, count along the chain named. Numbers in names are those of the source.
